{
  "source": "PubChem BioAssay AID1768",
  "about": "(National Center for Advancing Translational Sciences (NCATS), 2009)",
  "note": "The campaign covered roughly 270,000 compounds. About 620 (0.23%) were called active. Inconclusive results, whose numbers are uncertain, are shown with a selection of clear calls. Calls follow the shape of the dose curve; as a rule, active = well fitted inhibition curve with a large enough effect in the polarisation, with a control signal flat (not every such curve was filed as active); inconclusive = small, poorly fitted or top-dose-only effect, or effect the other way, or a change in a side signal; inactive = no such curve, though single readings can be large or run the other way; the % refers to the polarisation. Potencies beside an inconclusive call are fits to weak or partial responses and may not hold up. A note “side channel” means that the fit belongs to a control or component signal, not to the main read-out. Potency is read from the fitted curve at half-maximal effect; tags tell the direction and shape of the fitted curve or compound fluorescence and quenching.",
  "data": [
    {"target": "Menin (Homo sapiens) (UniProt O00255)", "sequence (O00255 whole entry, looked up)": "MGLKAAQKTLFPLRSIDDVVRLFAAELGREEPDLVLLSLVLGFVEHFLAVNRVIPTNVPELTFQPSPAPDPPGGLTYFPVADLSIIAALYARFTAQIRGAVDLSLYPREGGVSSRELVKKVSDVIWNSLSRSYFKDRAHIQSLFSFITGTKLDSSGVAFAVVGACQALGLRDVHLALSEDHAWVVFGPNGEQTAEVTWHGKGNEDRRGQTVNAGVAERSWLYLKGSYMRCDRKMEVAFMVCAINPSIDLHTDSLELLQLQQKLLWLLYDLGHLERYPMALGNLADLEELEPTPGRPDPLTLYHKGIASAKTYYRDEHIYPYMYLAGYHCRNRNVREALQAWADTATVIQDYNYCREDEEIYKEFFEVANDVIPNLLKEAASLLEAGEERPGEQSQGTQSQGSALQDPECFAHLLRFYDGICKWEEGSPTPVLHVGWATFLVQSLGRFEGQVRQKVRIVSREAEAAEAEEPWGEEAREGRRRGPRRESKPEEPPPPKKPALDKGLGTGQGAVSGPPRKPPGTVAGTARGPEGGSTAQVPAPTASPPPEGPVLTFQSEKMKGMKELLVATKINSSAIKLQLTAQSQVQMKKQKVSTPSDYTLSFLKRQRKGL", "experiment": "qHTS Assay for Inhibitors Targeting the Menin-MLL Interaction in MLL Related Leukemias: Competition With Texas Red Labeled MLL-derived Mutant Peptide; as to FP activity change, negative = inhibition: % of control where 0% means no effect", "conditions": "fluorescence polarization; FP activity change, negative = inhibition: at 61.6 µM (top of the series)", "values": [
      {"compound": "COc1ccc(-c2nn(-c3ccccc3)cc2N)cc1", "Potency": "inconclusive: 15.8 µM [quencher, side channel, partial curve]"},
      {"compound": "COc1nc(Nc2ccc([N+](=O)[O-])cc2)nc(NC(C)C)n1", "Potency": "inconclusive: 28.2 µM [quencher, side channel, single point]"},
      {"compound": "Cc1cc(NC(=O)Nc2ccccc2F)ccc1Br", "Potency": "inconclusive: 11.2 µM [quencher, side channel, partial curve]"},
      {"compound": "Cc1cc(N/N=C/c2c(O)ccc3ccccc23)nc(-c2ccccc2O)n1", "Potency": "inconclusive: 3.16 µM [quencher, side channel, full curve]"},
      {"compound": "CN[C@H]1CCc2cc(OC)c(OC)c(OC)c2-c2ccc(N(C)CC(OC)OC)c(=O)cc21", "Potency": "inconclusive: 11.2 µM [fluorescent, side channel, partial curve]"},
      {"compound": "COc1cc(-c2cc(N)n(S(=O)(=O)c3ccc(F)cc3)n2)cc(OC)c1OC", "Potency": "inconclusive: 25.1 µM [quencher, side channel, partial curve]"},
      {"compound": "C/C=C\\C(=O)N(CC)c1ccccc1C", "FP activity change, negative = inhibition": "inactive: -16% [at 24.8 µM]"},
      {"compound": "Cc1ccc(C)c(NC(=S)c2nc3ccccc3s2)c1", "Potency": "inconclusive: 22.4 µM [inhibitor, single point]"},
      {"compound": "O=C(CSCc1ccc(Br)cc1)Nc1ccc(S(=O)(=O)N2CCOCC2)cc1", "Potency": "inconclusive: 15.8 µM [quencher, side channel, single point]"},
      {"compound": "CN(Cc1ccccc1)C(=S)NC(=O)c1ccc(-c2ccccc2)cc1", "Potency": "inconclusive: 31.6 µM [quencher, side channel, single point]"},
      {"compound": "Nc1nc(-c2c[nH]c3ccccc23)cs1", "Potency": "inconclusive: 39.8 µM [fluorescent, side channel, single point]"},
      {"compound": "Nc1ccccc1SSc1ccccc1N", "Potency": "inconclusive: 25.1 µM [quencher, side channel, partial curve]"},
      {"compound": "O=C(Nc1ccc(Cl)cc1)Nc1cc([N+](=O)[O-])ccc1F", "Potency": "inconclusive: 12.6 µM [quencher, side channel, partial curve]"},
      {"compound": "O=S(=O)(c1ccc(NC(=S)N2CCN(c3ccccc3F)CC2)cc1)N1CCOCC1", "Potency": "inconclusive: 39.8 µM [quencher, side channel, single point]"},
      {"compound": "COc1ccc(C(=O)NC(=S)NNC(=O)COc2ccccc2)cc1", "Potency": "inconclusive: 39.8 µM [quencher, side channel, single point]"},
      {"compound": "COC(=O)c1cc2cc(NS(=O)(=O)c3ccc(C)cc3)ccc2s1", "Potency": "inconclusive: 35.5 µM [quencher, side channel, single point]"},
      {"compound": "CSc1ccccc1OCc1cc(C(=O)NCc2ccc(C)s2)no1", "Potency": "inconclusive: 39.8 µM [fluorescent, side channel, single point]"},
      {"compound": "O=C1/C(=C\\c2cccc(O)c2)SC(=S)N1Cc1ccccc1", "Potency": "inconclusive: 15.8 µM [quencher, side channel, partial curve]"},
      {"compound": "COC(=O)c1ccc(Cn2cnc3c(cnn3-c3ccc(Cl)cc3)c2=O)o1", "FP activity change, negative = inhibition": "inactive: -0.237%"},
      {"compound": "COc1ccc(CN(C)CC(=O)Nc2c(C)cccc2C)c(OC)c1", "Potency": "inconclusive: 15.8 µM [fluorescent, side channel, partial curve]"},
      {"compound": "COc1ccc(CNC(=O)CNC(=O)c2ccc(C(C)(C)C)cc2)cc1OC", "Potency": "inconclusive: 28.2 µM [inhibitor, single point]"},
      {"compound": "FC(F)(F)c1ccc(NC(=S)NC2CCCCC2)cc1", "Potency": "inconclusive: 14.1 µM [quencher, side channel, partial curve]"},
      {"compound": "CC(C)C[C@H](NC(=O)c1nc[nH]c1C(=O)N(C)Cc1ccccc1)C(=O)OCc1ccccc1", "Potency": "inconclusive: 5.01 µM [fluorescent, side channel, full curve]"},
      {"compound": "Cc1cc(C)cc(N(CC(=O)NCc2ccc(F)cc2)C(=O)CCC(=O)Nc2ccccn2)c1", "Potency": "inconclusive: 31.6 µM [fluorescent, side channel, single point]"},
      {"compound": "Cc1ccc(-c2nnn(CC(=O)N(c3cccc(F)c3)C(C(=O)NC3CCCC3)c3ccco3)n2)o1", "note": "(stereo not given)", "Potency": "inconclusive: 25.1 µM [fluorescent, side channel, partial curve]"},
      {"compound": "Clc1ccc(-c2nc3cnccn3c2Nc2ccc3c(c2)OCO3)cc1", "Potency": "inconclusive: 11.2 µM [quencher, side channel, partial curve]"},
      {"compound": "COc1ccc(-n2c(=O)c(CCC(=O)N(C)Cc3ccccc3C)nc3ccccc32)cc1", "Potency": "inconclusive: 11.2 µM [fluorescent, side channel, partial curve]"},
      {"compound": "Nc1ccc(C(=O)N/N=C/c2cn(Cc3ccccc3)c3ccccc23)cc1", "Potency": "inconclusive: 3.98 µM [quencher, side channel, full curve]"},
      {"compound": "COc1cccc(NC(=O)/C=C\\c2ccc(Cl)cc2)c1", "Potency": "inconclusive: 11.2 µM [quencher, side channel, partial curve]"},
      {"compound": "Clc1cccc(/C=N/Nc2ncnc3ccccc23)c1", "Potency": "inconclusive: 3.98 µM [quencher, side channel, partial curve]"},
      {"compound": "O=C(NCc1ccccc1)c1ccc(-c2ccc(F)cc2)o1", "FP activity change, negative = inhibition": "inactive: 1.78%"},
      {"compound": "Cc1ccc(OCC(=O)NC(=S)Nc2ccc(S(=O)(=O)Nc3cc(C)on3)cc2)c(Br)c1", "Potency": "inconclusive: 39.8 µM [inhibitor, single point]"},
      {"compound": "C#C[C@@]1(O)CCC2C3CCC4=CC(=O)CCC4C3CC[C@@]21CC", "note": "(stereo not given in full)", "Potency": "inconclusive: 39.8 µM [inhibitor, single point]"},
      {"compound": "CCOC(=O)C1CCN(C(=O)c2ccc(Br)o2)CC1", "Potency": "inconclusive: 0.708 µM [inhibitor, full curve, poor fit]"},
      {"compound": "CCCCc1nc2c(C)c(N)cnc2n1Cc1cccc([N+](=O)[O-])c1", "Potency": "inconclusive: 8.91 µM [inhibitor, partial curve]"},
      {"compound": "Cc1cccc(C(=O)Oc2cccc3c(O)cccc23)c1", "Potency": "inconclusive: 22.4 µM [quencher, side channel, single point]"},
      {"compound": "N#CCCN/N=C(/Cc1nc2ccccc2[nH]1)c1ccc(Cl)cc1", "Potency": "inconclusive: 25.1 µM [quencher, side channel, single point]"},
      {"compound": "O=C(Nn1c(O)c(C=C2N=c3ccccc3=N2)sc1=S)c1ccc(Cl)cc1", "Potency": "inconclusive: 20 µM [quencher, side channel, partial curve]"},
      {"compound": "O=C(CSc1nnc2c3ccccc3c3ccccc3c2n1)Nc1ccccc1F", "Potency": "inconclusive: 8.91 µM [quencher, side channel, partial curve]"},
      {"compound": "C=CCN1C(=O)N(c2ccc(Cl)cc2)C(=O)C1CC(=O)Nc1ccc(F)cc1", "note": "(stereo not given)", "Potency": "inconclusive: 6.31 µM [quencher, side channel, partial curve]"},
      {"compound": "CC1CN(S(=O)(=O)c2cccc(C(=O)OC/C(O)=C(\\C#N)c3nc4ccccc4[nH]3)c2)CC(C)O1", "note": "(stereo not given)", "Potency": "inconclusive: 11.2 µM [quencher, side channel, partial curve]"},
      {"compound": "CC1(c2ccccc2)CC(C)(C)N2C(=O)Cc3cccc1c32", "note": "(stereo not given)", "Potency": "inconclusive: 12.6 µM [fluorescent, side channel, partial curve]"},
      {"compound": "O=C(O)CCC(=O)Nc1sc2c(c1C(=O)Nc1cccc3ccccc13)CCCCC2", "Potency": "inconclusive: 28.2 µM [quencher, side channel, partial curve]"},
      {"compound": "O=C(NCc1cccc(C(F)(F)F)c1)C1CC(c2c(Cl)cccc2Cl)=NO1", "note": "(stereo not given)", "Potency": "inconclusive: 11.2 µM [fluorescent, side channel, partial curve, poor fit]"},
      {"compound": "O=S(=O)(Nc1nc2ccccc2nc1Nc1ccc2c(c1)OCO2)c1ccccc1", "Potency": "inconclusive: 14.1 µM [quencher, single point]"},
      {"compound": "COc1ccccc1Sc1nc(-c2ccccc2)ncc1OC", "Potency": "inconclusive: 28.2 µM [quencher, side channel, single point]"},
      {"compound": "Cc1cccc(NC(=S)N=Nc2c(O)[nH]c3ccccc23)c1", "Potency": "inconclusive: 28.2 µM [quencher, side channel, single point]"},
      {"compound": "CCOc1c(Cl)cc(C(=O)Nc2ccccc2C(=O)O)cc1Cl", "Potency": "inconclusive: 11.2 µM [quencher, side channel, partial curve]"},
      {"compound": "CCCCC(=O)NNC(=S)NC(=O)c1cccc([N+](=O)[O-])c1", "Potency": "inconclusive: 39.8 µM [quencher, side channel, single point]"},
      {"compound": "CS(=O)(=O)N1CC(C(=O)NC2CCCC2)Oc2ccc(Cl)cc21", "note": "(stereo not given)", "FP activity change, negative = inhibition": "inactive: -11.5%"},
      {"compound": "CC(=O)Nc1ccc(C(=O)OCc2ccc(Cl)c(Cl)c2)cc1", "Potency": "inconclusive: 35.5 µM [quencher, side channel, single point]"},
      {"compound": "Cc1nc2ccc(S(=O)(=O)NCC(=O)NCCN3CCCCCC3)cc2s1", "Potency": "inconclusive: 12.6 µM [inhibitor, partial curve, poor fit]"},
      {"compound": "CCOc1cc(/C=C2\\SC(=N)N(c3nccs3)C2=O)ccc1OCCN1CCOCC1", "Potency": "inconclusive: 39.8 µM [quencher, side channel, single point]"},
      {"compound": "O=C(Nc1ccccc1C(=O)Nc1ccccc1C(=O)NCc1ccco1)c1ccco1", "Potency": "inconclusive: 8.91 µM [quencher, side channel, partial curve]"},
      {"compound": "C/C(=N\\N=C1\\NC(=O)C(CC(=O)Nc2ccc(Cl)cc2)S1)c1ccco1", "note": "(stereo not given)", "Potency": "inconclusive: 25.1 µM [quencher, side channel, single point]"}
    ]}
  ]
}
